The whole screen tested about 340,000 compounds, of which about 6,900 (2%) were called active. Cut-off read from the data, not from the text of the source: active = inhibition above about 30%; inactive = below that, where a call was filed. This is a selection; strong and weak results do not stand in their true shares. Entries without a call were filed so in the source.
Each molecule was assayed against D(2) dopamine receptor (Homo sapiens) (UniProt P14416) (assay: HTS Assay for Allosteric Antagonists of the Human D2 Dopamine Receptor: Primary Screen for Antagonists). Details: HEK293 TREx D2 cells, calcium flux, dopamine EC80; at 10 µM; stronger effect = higher value.
Chain of UniProt P14416 (P14416 whole entry, looked up): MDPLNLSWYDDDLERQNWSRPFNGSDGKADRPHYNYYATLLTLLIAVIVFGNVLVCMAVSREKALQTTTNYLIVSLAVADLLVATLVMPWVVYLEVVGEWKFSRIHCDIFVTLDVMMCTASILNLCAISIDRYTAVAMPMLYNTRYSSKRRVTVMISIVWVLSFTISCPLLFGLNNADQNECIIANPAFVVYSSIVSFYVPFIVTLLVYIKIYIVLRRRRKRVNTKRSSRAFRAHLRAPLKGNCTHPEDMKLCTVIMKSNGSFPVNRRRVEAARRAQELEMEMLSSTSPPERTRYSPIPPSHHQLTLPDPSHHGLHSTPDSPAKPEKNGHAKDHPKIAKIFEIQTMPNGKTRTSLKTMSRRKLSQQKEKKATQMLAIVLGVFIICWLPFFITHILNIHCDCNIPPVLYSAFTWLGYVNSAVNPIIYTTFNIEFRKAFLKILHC
Method in brief: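 Calcium mobilization kinetics were recorded at 1 s intervals in tetracycline-induced HEK293 T-REx D2 cells, first for 180 s after compound addition and then 180 s after EC80 dopamine.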
Note: 0% is about no effect.

Row | SMILES | inhibition
1 | CCn1ccc2cc(S(=O)(=O)N3CCCN(C(=O)Nc4cccc(Cl)c4)CC3)ccc21 | 20.1%
2 | Cc1ccc(NC(=O)NCCc2c(C)nn(C)c2C)cc1Cl | -0.665%
3 | CCOc1ccc(NC(=O)CSc2nnc(C3CC3)n2C2CC2)cc1 | active: 42.8%
4 | COc1ccc(N(C)C(=O)c2cn(C3CCCCC3)c(=O)c3c2c2ccccc2n3C)cc1 | 16.1%
5 | COc1ccc(C2=NN(CC(=O)NCCc3ccc(OC)c(OC)c3)C(=O)CC2)cc1 | -6.52%
6 | CCOc1ccc(C(=O)N2CCC(c3nc4ccccc4o3)CC2)cc1 | -4.2%
7 | CSc1cccc(NC(=O)CN2C(=O)COc3ccc(Cl)cc32)c1 | 3.35%
8 | CCOc1ccc(OCC)c(NC(=O)c2nnn(CC(=O)Nc3ccc(C)cc3C)c2N)c1 | 6.41%
9 | Cc1cc2n(n1)C(c1cc(C(C)(C)C)c(O)cc1O)Nc1ccccc1-2 (stereo unspecified) | -9.07%
10 | COc1ccc(-c2cc3ccc(O)c(CN4CCOCC4)c3oc2=O)cc1OC | -2.77%
11 | Cc1ccc(-c2nc3sc(CCNC(=O)c4ccc(Br)o4)c(C)n3n2)cc1 | 21%
12 | COc1ccccc1CNC(=O)C(NS(=O)(=O)c1cccs1)C(C)C (stereo unspecified) | 0.78%
13 | COc1ccc(NC(=O)COc2ccc(-c3nn(C)c(=O)c4ccccc34)cc2)cc1 | -6%
14 | CCCCOc1ccc(C(=O)Nc2cccc(-c3nc4cccnc4s3)c2)cc1 | 6.49%
15 | COc1ccccc1-c1nnc(SCC(=O)c2ccc(Cl)cc2)n1-c1ccccc1 | -7.48%
16 | CCCCc1ccc(NC(=O)c2cc3c(=O)n4ccccc4nc3s2)cc1 | -7.35%
17 | CC(NC(=O)c1ccc2c(c1)CCN2S(=O)(=O)c1ccc(Cl)cc1)c1ccccc1 (stereo unspecified) | -1.22%
18 | CCOc1ccc(NC(=O)CSc2nc3c(oc4ccccc43)c(=O)n2-c2ccccc2C)cc1 | 9.78%
19 | COc1ccc(NC(c2ccccc2)c2ccncc2)cc1 (stereo unspecified) | active: 40.7%
20 | CC(C)(C)OC(=O)N1CCC(c2c(C(=O)N3CCC(c4ccccc4)C3)cnn2-c2cccc(Cl)c2)CC1 (stereo unspecified) | -8.64%
21 | CCCCCS(=O)(=O)c1oc(-c2cccs2)nc1S(=O)(=O)c1ccc(C)cc1 | -8.12%
22 | CCCCN(CCCC)C(=O)c1cc2c(=O)n3cccc(C)c3nc2s1 | 14.2%
23 | COc1ccc(C2CC(=O)N(CC(=O)Nc3cc(C)ccc3C)c3ccccc3S2)cc1 (stereo unspecified) | -0.409%
24 | Cc1cccc(OCC(=O)N(Cc2cccs2)c2ccc(Cl)cc2)c1C | 11.9%

Row | SMILES | inhibition
25 | COC(=O)c1c(-c2cccs2)csc1NC(=O)COc1ccc(C(C)(C)C)cc1 | 2.51%
26 | CCOc1ccccc1NC(=O)c1nn(-c2ccc(C)cc2)c(=O)n(C)c1=O | 16.5%
27 | CCOc1ccccc1C1C(C(=O)N2CCCCC2)=C(C)Nc2nc3ccccc3n21 (stereo unspecified) | -13.8%
28 | COc1ccccc1CNc1ccc(-c2nc(-c3cccnc3)no2)cc1[N+](=O)[O-] | -2.18%
29 | Cc1ccc(C(=O)Nc2ccc(-c3cn4cccnc4n3)cc2)cc1C | -10.2%
30 | COc1cccc(NC(=S)N(CCCN2CCCC(C)C2)Cc2cccs2)c1 (stereo unspecified) | active: 59.1%
31 | COc1cc(C(C(=O)NC2CCCC2)N(C(=O)c2snc(C(N)=O)c2N)C2CCCC2)cc(OC)c1OC (stereo unspecified) | active: 31.6%
32 | COc1ccc(N(C)C(=O)CCn2cnc3onc(-c4ccc(F)cc4)c3c2=O)c(OC)c1 | -8.14%
33 | COc1cccc(NC(=O)CN2C(=O)c3cccnc3Oc3ccc(Cl)cc32)c1 | 10.9%
34 | O=C(NCC1CCN(Cc2cccc(Cl)c2)CC1)Nc1cc(Cl)ccc1Cl | 1.71%
35 | Cc1cc(C)c(NC(=O)Cc2csc(C)n2)c(Cl)c1 | 17.4%
36 | CCN1C(=O)c2ccccc2Sc2ccc(C(=O)NCCCN(CC(C)C)CC(C)C)cc21 | active: 42.3%
37 | COc1ccc(COCC(O)CN(Cc2ccccc2)C(C)C)cc1OC (stereo unspecified) | active: 31.1%
38 | O=C1c2oc3ccccc3c(=O)c2C(c2ccccc2)N1Cc1ccc2c(c1)OCO2 (stereo unspecified) | 1.77%
39 | CN1C(=O)c2ccccc2Sc2ccc(NC(=O)c3ccccc3F)cc21 | -6.77%
40 | Cc1c(-c2nsc(NC(=O)c3ccccc3)n2)nnn1-c1ccc(C(F)(F)F)c(Cl)c1 | -3.88%
41 | CCOC(=O)c1cccc(NC(=O)[C@@H](c2ccccc2)N2Cc3ccccc3C2=O)c1 | -3.37%
42 | COc1ccc(C2CC(=O)Nc3c2c(C)nn3-c2nncc(-c3ccc(C)cc3)n2)c(OC)c1OC (stereo unspecified) | -4.41%
43 | Cc1csc2nc(-c3cccc(NC(=O)C(C)C)c3)cn12 | -1.63%
44 | CCc1ccccc1NC(=O)c1ccc2c(c1)N(Cc1cccc(Cl)c1)C(=O)c1ccccc1S2(=O)=O | -0.184%
45 | CCOc1ccc(-c2nc(SCC(=O)Nc3ccc4c(c3)OCO4)c(-c3ccc(F)cc3)[nH]2)cc1 | 3.1%
46 | Cc1nc2cccnc2n1-c1cccc(C(=O)N2CCN(c3ccc(Cl)cc3)CC2)c1 | -3.2%
47 | CCC(=O)N1c2ccccc2CC1C(=O)NCc1ccc(OC(C)C)cc1 (stereo unspecified) | -8.11%
48 | CCN(CCCNC(=O)Cn1ncc2c([nH]c3ccc(C)cc32)c1=O)c1cccc(C)c1 | -1.57%

Row | SMILES | inhibition
49 | O=C(NCCc1ccccc1)c1ccc(CS(=O)(=O)c2ccc(Br)cc2)o1 | 19.2%
50 | Cc1cc2nn(-c3ccccc3)nc2cc1NC(=O)c1cccc2c(Cl)cccc12 | 1.31%
51 | COc1ccc(-n2ccnc2SCC(=O)Nc2ccc(F)cc2F)cc1 | 19.9%
52 | COc1ccc(CCC(=O)N2CCc3c([nH]c4ccccc34)C2c2ccc(F)cc2)cc1 (stereo unspecified) | 8.83%
53 | CCSc1nnc2n(-c3cccc(C)c3)c(=O)c3c4c(sc3n12)CCCC4 | 12.2%
54 | COc1ccc(-c2cc(C(=O)Nc3cccnc3Cl)no2)cc1OC | 14.8%
55 | CCOc1ccccc1N1CCN(Cc2cc3c(cc2[N+](=O)[O-])OCO3)CC1 | active: 59.6%
56 | Cc1ccc2onc(CNC(=O)N3CCN(c4cccc(C)c4C)CC3)c2c1 | -7.15%
57 | Cc1ccc(C)c(CN2C(=O)C(=O)c3ccccc32)c1 | 17.7%
58 | COc1cc(NC(=O)c2ccc(C)cc2)ccc1NC(=O)c1cc2ccccc2o1 | -0.639%
59 | O=C1CSC2(C(=O)N(Cc3ccccc3F)c3ccccc32)N1c1ccc(F)cc1 (stereo unspecified) | -2.36%
60 | COc1ccc(N2CCN(S(=O)(=O)CCNC(=O)C(c3ccccc3)c3ccccc3)CC2)cc1 | -6.31%
61 | CS(=O)(=O)N(CC(=O)N1CCCC1)Cc1ccccc1 | active: 47.1%
62 | CCOC(=O)c1ccc(Nc2nc3ccccc3nc2NS(=O)(=O)c2ccc(Cl)cc2)cc1 | 5.66%
63 | CCN1CCN(CCCNC(=O)c2cnn(-c3ccccc3)c2C2CCN(C(=O)OC(C)(C)C)CC2)CC1 | 14.8%
64 | COc1cccc(C2C=C(c3ccc(C)c(C)c3)Nc3nnnn32)c1OC (stereo unspecified) | 0.618%
65 | Cc1ccc(-c2c(CN3CCN(c4cccc(C(F)(F)F)c4)CC3)csc2C)cc1 | 24.5%
66 | O=C(NCCc1csc2nc(-c3ccccc3F)nn12)c1ccco1 | -11.8%
67 | O=C(NC(=O)c1ccc(F)cc1)Nc1ccc(-c2cc(C(F)(F)F)nn2-c2ccccc2)cc1 | -25.7%
68 | CN1C(C(=O)c2ccccc2)=C(OC(=O)c2ccc(Br)cc2)c2ccccc2S1(=O)=O | -10.3%
69 | Cc1oc2c(c(C)cc3oc(=O)c(CC(=O)NCCc4ccccc4)c(C)c32)c1C | 10.3%
70 | COc1ccc(NC(=O)c2cc3c(=O)n(Cc4ccco4)ccc3nc2C)cc1 | -3.33%
71 | Cc1ccc(NC(=O)Nc2ccc3c(c2)N(C)C(=O)c2ccccc2S3)c(C)c1 | -2.5%
72 | CCOC(=O)c1c(C)[nH]c(C)c1S(=O)(=O)NCC(=O)Nc1cc(C)ccc1OC | -7.22%

Row | SMILES | inhibition
73 | COc1ccccc1NC(=O)c1c(NCc2ccc(OC)c(OC)c2OC)sc2c1CCCC2 | -1.6%
74 | COc1cccc(NC(=O)Nc2cccc(-c3cn4cccnc4n3)c2)c1 | -2.27%
75 | CC1CCC2(CC1)NC(=O)N(CC(=O)Nc1sc3c(c1C(N)=O)CCC3)C2=O (stereo unspecified) | active: 38.5%
76 | O=C(NCCc1ccccc1)c1cc(-c2ccc(Cl)cc2)on1 | -6.46%
77 | COc1ccc(NC(=O)c2noc3c2CCCC3)cc1Cl | 13.6%
78 | CCOc1ccc(-c2nnc(Nc3ccc(S(N)(=O)=O)cc3)c3ccccc23)cc1 | -11.8%
79 | CC(C)(C)c1ccc(OCC(=O)N2CCC(c3nc4ccccc4s3)CC2)cc1 | -6.5%
80 | Cc1cc(C)c(NC(=O)CSc2nc(=O)[nH]c3c2CCCC3)c(C)c1 | 21.1%
81 | CCCOC1(C(F)(F)F)NC(=O)N(c2ccc(Cl)cc2)C1=O (stereo unspecified) | 21%
82 | Cc1nc2c(C(=O)NCc3ccccc3)c[nH]n2c(=O)c1Cc1ccccc1Cl | -25.3%
83 | Cc1sc2ncn(CC(=O)N(C)c3ccc(Br)cc3)c(=O)c2c1S(=O)(=O)N1CCC(C)CC1 | 2.76%
84 | COc1ccc(N(CC(=O)N/N=C/c2cccc3c2OCCO3)S(=O)(=O)c2ccc(NC(C)=O)cc2)cc1 | active: 44.5%
85 | Cc1cccc2cc(C#N)c(SCC(=O)N3CC(=O)Nc4ccccc43)nc12 | active: 33.6%
86 | Cc1cccc(NC(=O)c2c(C)oc3ncn(CC(C)C)c(=O)c23)n1 | 3.11%
87 | CC(=O)N1CCc2cc(S(=O)(=O)CCC(=O)N3CCN(c4cccc(C)c4C)CC3)ccc21 | 7.12%
88 | Cc1ccc(-n2ncc(C(=O)NCc3ccco3)c2C2CCN(C(=O)OC(C)(C)C)CC2)c(C)c1 | -8.17%
89 | CC(=O)c1ccc(N2C(=O)N(CC(=O)c3ccc(F)cc3)c3ccccc3S2(=O)=O)cc1 | 4.81%
90 | Cc1ccc(-n2ncc3c(NC4CCCCCC4)ncnc32)cc1Cl | 7.42%
91 | CCCCN(CCCNC(=O)c1cc(Nc2ccc(OC)c(OC)c2)nc2ccccc12)Cc1ccccc1 | -1.48%
92 | COc1ccc(S(=O)(=O)NCCc2csc(-c3ccc(F)cc3)n2)cc1F | -15.1%
93 | CCOC(=O)C1=C(C)N=C2SCCC(=O)N2C1c1ccc(OCc2ccccc2)cc1 (stereo unspecified) | -1.54%
94 | COC(=O)c1c(NC(=O)CCCOc2cccc(C)c2)sc2c1C(C(=O)OC)CC2 (stereo unspecified) | -5.58%
95 | Cn1c(CN2CCCC2)c(C#N)c2ccccc21 | active: 82.8%
96 | CCN(CC)C(=O)Cn1c(=O)n(Cc2ccc(C(=O)NCCc3ccc(OC)c(OC)c3)cc2)c(=O)c2ccccc21 | -11%

Reference: PubChem BioAssay AID485344 (National Center for Advancing Translational Sciences (NCATS), 2010)
